Out of some 52,000 compounds screened, about 4,300 (8.3%) were called active. Rule as the data show it: active = survival mostly below about 52% (no sharp cut-off); inactive = mostly above about 56%. The list shows a part of the results.

The assay deals with DeltatarO mutant. The assay is described as follows: S. aureus survival, RN4220 and DeltatarO strains – OD600, teichoic acid synthesis inhibitors, primary screen (AID 463173). Particulars: S. aureus RN4220 wild type/DeltatarO growth, OD600, 18 h, stronger effect = lower value, screened at 18.75 µg/mL (by protocol).
Regarding `CCOc1ccccc1NC(=O)C1CCCN(S(=O)(=O)c2cn(C)cn2)C1` (configuration not stated), the survival is inactive: 92%.
For the compound `CCOC(=O)c1c(C)oc2nc(C)nc(Nc3cc(C)ccc3OC)c12`, the survival is inactive: 79%.
In the case of `CCCc1cc(=O)[nH]c(Nc2ccc(O)cc2C)n1` it was inactive: 108%.
Consider `O=C(CSc1nc2ccccc2nc1Cc1ccccc1)N1CCCc2ccccc21`, for which the survival was inactive: 75%.
For the compound `CCOC(=O)c1cccc(NC(=O)c2sc3nc[nH]c(=O)c3c2C)c1`, the survival is inactive: 83%.
In the case of `CCc1ccc2occ(CC(=O)N(Cc3ccc(N(C)C)cc3)C3CCS(=O)(=O)C3)c2c1` (configuration not stated) it was inactive: 87%; in that of `COc1cc(-c2ccno2)ccc1S(=O)(=O)N1CCN(c2ccc(F)cc2)CC1`, inactive: 67%.
In the case of `CC(C)C(=O)N1CCN(c2ccc(NC(=O)Cc3ccccc3)cc2Cl)CC1`, the survival is inactive: 60%.
For `CCOC(=O)N1CCC(NC(=O)c2ccc3c(c2)N(Cc2ccc(Cl)cc2)C(=O)c2ccccc2S3=O)CC1` (configuration not stated) the value was inactive: 67%.
In the case of `Cc1cccc(N(C)S(=O)(=O)c2nnc(NC(=O)C3CCCCC3)s2)c1` it was inactive: 72%.
For `CCc1cccc(NC(=O)COc2cc(=O)n(CC)c3ccccc23)c1` the value was inactive: 115%; for `Cn1ccc2cc(S(=O)(=O)N3CCN(C(=O)Nc4ccccc4F)CC3)ccc21`, inactive: 84%; for `CCOC(=O)c1c(Nc2cccc(C)c2)nnc(-c2ccccc2)c1-c1ccccc1`, active: -4%.
Turning to `Fc1cccc(Nc2nc(Cl)nc(Cl)n2)c1`, the survival was inactive: 93%.
For `O=C(Cn1ncc2c3ccccc3n(Cc3cccc(Cl)c3)c2c1=O)N1CCCCCC1` the value was inactive: 87%; for `O=C(NCc1ccco1)c1ccc2c(c1)N(Cc1cccc(Cl)c1)C(=O)c1ccccc1S2=O` (configuration not stated), inactive: 63%; for `CCOc1ccc(CCNC(=O)Cn2c(C)c3cnn(-c4ccccc4)c(=O)c3c2C)cc1`, inactive: 91%.
In the case of `COc1cc(OC)c(NC(=O)CSc2cc(=O)n(C)c3ccc(Cl)cc23)cc1Cl` it was inactive: 54%; in that of `CCc1ccc(NC(=O)CC2C(=O)N(c3ccc(Cl)cc3)C(=O)N2C2CCCC2)cc1` (configuration not stated), inactive: 134%; in that of `CCc1c(CN2CCN(c3cccc(C)c3)C(C)C2)csc1C` (configuration not stated), inactive: 76%.
On to `CCn1cc(C(=O)NC2CCCCC2)c(=O)c2ccc(C)nc21`, for which the survival is inactive: 110%.
For `CCc1ccc(NC(=O)c2sc3nc(C)cc(C)c3c2NC(=O)c2ccccc2OC)cc1` the value was inactive: 69%.
Consider `CCN(Cc1ccccc1)C(=O)CCS(=O)(=O)c1ccc2c(c1)CCN2C(C)=O`, for which the survival was inactive: 90%.
For `O=C(NC1CCCCC1)c1ccc2c(c1)N(Cc1cccc(Cl)c1)C(=O)c1ccccc1S2=O` (configuration not stated) the value was inactive: 101%; for `COc1ccc(CN2CCN(S(=O)(=O)c3ccc(NC(C)=O)cc3)CC2)c(OC)c1OC`, inactive: 61%; for `CCc1ccc(-c2nc(CSCC(=O)NCc3ccc(C)cc3)c(C)o2)cc1`, active: -3%.
Consider `CC(=O)c1cc2c(cc1N/C(=N/S(=O)(=O)c1ccc(F)cc1)c1ccccc1)OCO2`, for which the survival is inactive: 71%.
For `COc1ccc(CNC(=O)C2CCN(S(=O)(=O)c3ccc4c(ccn4C)c3)CC2)cc1` the value was inactive: 76%; for `O=C(C1CCC1)N1CCCC(c2nc3c(nnn3Cc3cccc(Cl)c3)c(=O)[nH]2)C1` (configuration not stated), inactive: 101%; for `COc1ccc(C(=O)CCC(=O)Nc2cc(C)ccc2C)cc1`, inactive: 83%.
For `Cc1cccc2sc(N(Cc3cccnc3)C(=O)COc3ccccc3)nc12` the value was inactive: 75%; for `CC(=O)c1cccc(Nc2nc(-c3ccccc3Cl)nc3ccccc23)c1`, active: 38%.
For `Cc1ccccc1Cn1c2ccccc2c2cnn(CC(=O)NCCc3ccc(Cl)cc3)c(=O)c21` the value was inactive: 84%; for `CC(C)c1cccc(C(C)C)c1NS(=O)(=O)c1cccs1`, active: 41%.
Turning to `CC(CCCc1ccccc1)NC(=O)c1nn(-c2ccc(Cl)cc2)nc1CO` (configuration not stated), the survival was inactive: 82%.
In the case of `Cc1ccc2[nH]c3c(=O)n(CC(=O)N4CCCC(C)C4)ncc3c2c1` (configuration not stated) it was inactive: 76%.
`O=C(NC1CC(=O)N(c2ccccc2)C1)c1ccc(S(=O)(=O)N2CCCC2)cc1` (configuration not stated): the survival was inactive: 128%.
In the case of `Nc1ncc(S(=O)(=O)NCc2ccc(F)cc2)cn1` it was inactive: 72%; in that of `CCc1cccc(NC(=O)C(CC)n2nc(C)c3sc4ccccc4c3c2=O)c1` (configuration not stated), inactive: 82%.
For `Cc1c(C(=O)NCc2ccccc2Br)oc2ccc3c(c12)C(=O)CC(C)(C)O3` the value was inactive: 83%; for `COc1ccc(NC(=O)c2sc3nc4c(cc3c2N)CN(Cc2ccccc2)CC4)cc1OC`, inactive: 91%.
In the case of `CC(C)c1ccc(NC(=O)C(Cc2ccccc2)NS(=O)(=O)c2ccc3c(c2)oc(=O)n3C)cc1` (configuration not stated) it was inactive: 80%.
For `Cc1noc(-c2ccc(-c3noc(-c4ccc(C(F)(F)F)cc4)n3)cc2)n1`, the survival is inactive: 119%.
As for `O=C(NCCCN1CCN(c2ccc(F)cc2)CC1)c1ccc2nc(CCc3ccccc3)oc2c1`, the survival was inactive: 75%.
For `COc1ccc(Nc2nc(-c3ccccc3F)nc3ccccc23)cc1OC` the value was inactive: 99%.
`CCc1ccc(NC(=O)c2ccc(F)c(S(=O)(=O)N3CCN(c4cc(C)ccc4C)CC3)c2)cc1`: the survival was inactive: 80%.
For `Cc1noc2ncnc(N3CCCC(C(=O)Nc4cccc(C(F)(F)F)c4)C3)c12` (configuration not stated) the value was inactive: 93%.
For `CC(C)c1ccc(NC(=O)Cn2c(=O)oc3cc(S(=O)(=O)N4CCCC4)ccc32)cc1` the value was inactive: 103%; for `CCOC(=O)CC1NC(=O)c2ccccc21` (configuration not stated), inactive: 69%; for `CCc1c(C)c(C#N)c2nc3ccccc3n2c1Nc1cccc(C(F)(F)F)c1`, active: 39%.
For `Cc1cc(C)c2c(=O)c3c(oc2c1)C(=O)N(Cc1ccco1)C3c1ccccc1F` (configuration not stated) the value was inactive: 106%; for `Cn1cc(-c2cc3n(n2)CCC(=O)N3CCCC(=O)Nc2ccccc2F)c2ccccc21`, inactive: 134%.
As to `Cc1ccc(O)c(NC(=O)COCc2cc(-c3ccco3)on2)c1`, the survival was inactive: 95%.
For `COc1ccc(OC)c(NC(=O)Cn2cc(C(=O)c3ccc(Cl)cc3)c(=O)c3cc(OC)ccc32)c1` the value was inactive: 66%; for `CC(=O)Nc1nonc1-c1nnc(SCc2ccccc2Cl)n1C`, active: 42%.
In the case of `COc1ccc(Nc2nc(OC)nc(OC)n2)cc1` it was inactive: 90%; in that of `COc1ccc(-c2cc(C(=O)Oc3cccc(C)c3C)c3ccccc3n2)cc1`, active: 31%.
